By IC50 is meant the dose at which the fit gives 50% viability; where the fit passes the top or lowest dose, that dose stands as a limit. AUC is the area under the same curve over the 256-fold range up to the top dose, as a fraction; values near 1 show little effect. For some assays here: A top dose marked as inferred is not printed in the source and was worked back from the curve model.
What was measured:
Assay in all cases: Viability of human cancer cell lines after 72 h of drug (GDSC screen)
[1] = compound: CC(=O)Nc1cccc(-n2c(=O)n(C3CC3)c(=O)c3c(Nc4ccc(I)cc4F)n(C)c(=O)c(C)c32)c1 [Trametinib]; details: top dose 1 µM
Method: (§1)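 Human cancer cell lines in 384-well plates, medium with 10% serum, drug for 72 h over a 256-fold dose range (nine 2-fold or five 4-fold steps up to the top dose). Adherent lines were fixed and stained with the nucleic acid dye Syto60, suspension lines read with resazurin; signal relative to control wells, capped at 0 and 100%. One two-parameter sigmoid per drug and line, fitted in a mixed model over all curves with the slope shared within a line.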

[2] = compound: CCN1CCN(Cc2ccc(NC(=O)c3ccc(C)c(/C=C/c4cnc5[nH]ccc5c4OC)c3)cc2C(F)(F)F)CC1 [HG-6-64-1]; details: top dose 5.12 µM; top dose inferred
Method: as §1

[3] = compound: CCNC(=O)C[C@@H]1N=C(c2ccc(Cl)cc2)c2cc(OC)ccc2-n2c(C)nnc21 [I-BET-762]; details: top dose 20 µM; top dose inferred
Method: as §1

[4] = compound: CCc1cncnc1N1CCN(Cc2nc3ccc(C(F)(F)F)cc3[nH]2)CC1 [PF-4708671]; details: top dose 10 µM; top dose inferred
Method: as §1

[5] = compound: COc1cc2nccc(Oc3ccc(NC(=O)Nc4cc(C)on4)c(Cl)c3)c2cc1OC [AV-951]; details: top dose 0.128 µM; top dose inferred
Method: as §1

[6] = compound: Nc1ccccc1NC(=O)c1ccc(CNC(=O)OCc2cccnc2)cc1 [MS-275]; details: top dose 5 µM; top dose inferred
Method: as §1

[7] = compound: O=C(NC(COc1ccc2[nH]c(=O)[nH]c2c1)c1ccccc1)c1cccn(Cc2ccc(F)c(F)c2)c1=O [KIN001-244]; details: top dose 20 µM; top dose inferred
Method: as §1

| Cell Line | AUC [1] | IC50 [1] | AUC [2] | IC50 [2] | AUC [3] | IC50 [3] | AUC [4] | IC50 [4] | AUC [5] | IC50 [5] | AUC [6] | IC50 [6] | AUC [7] | IC50 [7] |
| --- | --- | --- | --- | --- | --- | --- | --- | --- | --- | --- | --- | --- | --- | --- |
| OCI-AML5 (acute myeloid leukaemia, suspension) | 0.593 | 110 nM | 0.649 | 796 nM | 0.508 | 1310 nM | 0.989 | > 10000 nM | 0.963 | > 128 nM | 0.567 | 468 nM | 0.795 | 8360 nM |
| OCI-LY-19 (B-cell lymphoma, suspension) | 0.789 | 404 nM | 0.475 | 275 nM | 0.602 | 2330 nM | 0.968 | > 10000 nM | 0.982 | > 128 nM | 0.688 | 1000 nM | 0.522 | 1420 nM |
| OCI-M1 (acute myeloid leukaemia, suspension) | 0.947 | > 1000 nM | 0.886 | 3360 nM | 0.341 | 508 nM | 0.951 | > 10000 nM | 0.976 | > 128 nM | 0.657 | 758 nM | 0.722 | 4430 nM |
| OCUB-M (breast, adherent) | 0.982 | > 1000 nM | 0.845 | 2980 nM | 0.853 | 12400 nM | 0.849 | 6020 nM | 0.987 | > 128 nM | 0.724 | – | 0.8 | 8190 nM |
| OMC-1 (cervix, adherent) | 0.794 | 483 nM | 0.811 | 2880 nM | 0.951 | > 20000 nM | 0.971 | > 10000 nM | 0.987 | > 128 nM | 0.963 | > 5000 nM | 0.899 | > 20000 nM |
| ONS-76 (medulloblastoma, adherent) | 0.095 | < 3.91 nM | 0.53 | 388 nM | 0.913 | > 20000 nM | 0.939 | > 10000 nM | 0.964 | > 128 nM | 0.561 | 466 nM | 0.899 | > 20000 nM |
| OPM-2 (myeloma, suspension) | 0.987 | > 1000 nM | 0.73 | 1250 nM | 0.318 | 432 nM | 0.943 | > 10000 nM | 0.993 | > 128 nM | 0.534 | 379 nM | 0.83 | 9550 nM |
| OS-RC-2 (kidney, adherent) | 0.841 | > 1000 nM | 0.612 | 746 nM | 0.976 | > 20000 nM | 0.955 | > 10000 nM | 0.974 | > 128 nM | 0.639 | 901 nM | 0.861 | > 20000 nM |
| OVCAR-4 (ovary, adherent) | 0.448 | 42.2 nM | 0.501 | 323 nM | 0.915 | > 20000 nM | 0.919 | > 10000 nM | 0.971 | > 128 nM | 0.603 | 687 nM | 0.907 | > 20000 nM |
| P30-OHK (lymphoblastic leukaemia, suspension) | 0.974 | > 1000 nM | 0.552 | 434 nM | 0.385 | 640 nM | 0.983 | > 10000 nM | 0.98 | > 128 nM | 0.929 | > 5000 nM | 0.302 | 388 nM |
| P32-ISH (Burkitt lymphoma, suspension) | 0.993 | > 1000 nM | 0.448 | 239 nM | 0.415 | 777 nM | 0.993 | > 10000 nM | 0.983 | > 128 nM | 0.874 | 2910 nM | 0.864 | 10800 nM |
| PF-382 (T-cell lymphoblastic leukaemia, suspension) | 0.99 | > 1000 nM | 0.539 | 403 nM | 0.535 | 1530 nM | 0.975 | > 10000 nM | 0.982 | > 128 nM | 0.709 | – | 0.716 | 4640 nM |
| PL-21 (acute myeloid leukaemia, suspension) | 0.807 | 618 nM | 0.819 | 3570 nM | 0.65 | 3510 nM | 0.958 | > 10000 nM | 0.98 | > 128 nM | 0.709 | 1350 nM | 0.593 | 2350 nM |
| PSN1 (pancreas, adherent) | 0.069 | < 3.91 nM | 0.96 | > 5120 nM | 0.831 | 9970 nM | 0.977 | > 10000 nM | 0.99 | > 128 nM | 0.757 | 1480 nM | 0.905 | 19500 nM |
| QIMR-WIL (acute myeloid leukaemia, suspension) | 0.948 | > 1000 nM | 0.71 | 1230 nM | 0.477 | 1080 nM | 0.979 | > 10000 nM | 0.965 | > 128 nM | 0.63 | 704 nM | 0.761 | 6890 nM |
| RC-K8 (B-cell lymphoma, suspension) | 0.975 | > 1000 nM | 0.978 | > 5120 nM | 0.907 | > 20000 nM | 0.943 | > 10000 nM | 0.992 | > 128 nM | 0.894 | 4610 nM | 0.951 | > 20000 nM |
| RCC10RGB (kidney, adherent) | 0.768 | 841 nM | 0.615 | 902 nM | 0.953 | > 20000 nM | 0.938 | > 10000 nM | 0.97 | > 128 nM | 0.944 | > 5000 nM | 0.843 | > 20000 nM |

Source: the supplement of paper PMC4967469
